Patent publication US10377743B2, “Inhibitors of RAS and methods of use thereof” (Araxes Pharma LLC, priority 2016, dated 2019)
The name of at least one read-out is uncertain.

The compounds below were run against T1, KRAS G12C 1-169, his-tagged protein, GDP-loaded (Homo sapiens, UniProt P01116, G12C) (assay: Biochemical assay: covalent binding (modification %) to KRAS G12C by mass spectrometry). Details: 2 hour incubation period, concentration not stated for compounds above 92.
T1 construct: KRAS G12C 1-169, his-tagged protein, GDP-loaded
Protocol: Test compounds were prepared as 10 mM stock solutions in DMSO (Fisher cat# BP-231-100). KRAS G12C 1-169, his-tagged protein, GDP-loaded was diluted to 2 μM or 0.5 μM in buffer (20 mM Hepes, 150 mM NaCl, 1 mM MgCl2). Compounds were tested for activity as follows:
Compounds were diluted to 50× final test concentration in DMSO in 96-well storage plates. Compound stock solutions were vortexed before use and observed carefully for any sign of precipitation. Dilutions were as follow: • For 100 μM final compound concentration, compounds were diluted to 5000 μM (5 μL 10 mM compound stock+5 μL DMSO and mixed well by pipetting. • For 30 μM final compound concentration, compounds were diluted to 1500 μM (3 μL 10 mM compound stock+17 μL DMSO) and mixed well by pipetting. • For 10 μM final compound concentration, compounds were diluted to 500 μM (2 μL 10 mM compound stock+38 μL DMSO) and mixed well by pipetting. 49 μL of the stock protein solution was added to each well of a 96-well PCR plate (Fisher cat#1423027). 1 μl of the diluted 50× compounds were added to appropriate wells in the PCR plate using 12-channel pipettor. Reactions were mixed carefully and thoroughly by pipetting up/down with a 200 μL multi-channel pipettor. The plate was sealed well with aluminum plate seal, and stored in drawer at room temperature for 10 minutes, 30 minutes, 2 hours or 24 hours. 5 μL of 2% formic acid (Fisher cat# A117) in de-ionized H2O was then added to each well followed by mixing with a pipette. The plate was then resealed with aluminum seal and stored on dry ice until analyzed as described below.
The above described assays were analyzed by mass spectrometry according to one of the following two procedures:
The MS instrument is set to positive polarity, 2 GHz resolution, and low mass (1700) mode and allowed to equilibrate for 30 minutes. The instrument is then calibrated, switched to acquisition mode and the appropriate method loaded.
After another 30 minute equilibration time, a blank batch (i.e., buffer) is run to ensure equipment is operating properly. The samples are thawed at 37° C. for 10 minutes, briefly centrifuged, and transfer to the bench top. Wells A1 and H12 are spiked with 1 μL 500 μM internal standard peptide, and the plates centrifuged at 2000×g for 5 minutes. The method is then run and masses of each individual well recorded.
The masses (for which integration data is desired) for each well are pasted into the platemap and exported from the analysis. Masses for the internal standards are exported as well. The data at 50 ppm is extracted for the +19 charge state, and identity of well A1 is assigned using the internal standard spike and integrated. Peak data is exported as a TOF list and the above steps are repeated individually, for the +20, 21, 22, 23, 24, and 25 charge states.
The masses and peak intensities of KRAS G12C protein species were measured using a Dionex RSLCnano system (Thermo Scientific) connected to a Q Exactive Plus mass spectrometer (Thermo Scientific).
[…] of sample was each loaded onto a Aeris™ 3.6 μm WIDEPORE C4 200 Å, LC Column 50×2.1 mm column maintained at 40° C. at a flow rate of 600 μL/min with 20% Solvent A (0.1% formic acid in H2O) and 80% Solvent B (0.1% formic acid in acetonitrile). The liquid chromatography conditions were 20% solvent B for 1 minute, 20% to 60% solvent B for 1.5 minutes, 60% to 90% solvent for 0.5 minute, 90% solvent B for 0.2 minute, 90% to 20% solvent B for 0.2 minute, and then equilibrated for 1.6 minute before the following sample injection. The flow rate was maintained at 600 μL/min throughout the sample analysis.
The mass spectrometer was operated in profile mode at a resolution of 17500, 5 microscans, using 50 msec max injection time and an AGC target of 1×10^6, and a full mass range from 800-1850 m/z was recorded. The HCD trapping gas was optimized for maximum sensitivity for intact proteins. […]
C=CC(=O)N1CC(n2c(=O)c3cc(-c4cc(O)cc5ccccc45)ccc3n2C)C1 [Compound 127, 2-(1-acryloylazetidin-3-yl)-5-(3-hydroxynaphthalen-1-yl)-1-methyl-1,2-dihydro-3H-indazol-3-one] was tested, and the Binding % was “+++ (+++ indicates binding activity greater than 50%)”. With C=CC(=O)N1CC(N2CCCc3cc(-c4c(C)ccc5[nH]ncc45)ccc3C2)C1 [Compound 120, 1-(3-(7-(5-methyl-1H-indazol-4-yl)-4,5-dihydro-1H-benzo[c]azepin-2(3H)-yl)azetidin-1-yl)prop-2-en-1-one] the Binding % was “+ (+ indicates binding activity up to 10%)”. C=CC(=O)N1CCC(n2c3ccc(-c4cc(O)cc5ccccc45)cc3c(=O)n2C)CC1 [Compound 175, 1-(1-acryloylpiperidin-4-yl)-5-(3-hydroxynaphthalen-1-yl)-2-methyl-1H-indazol-3(2H)-one] was tested, and the Binding % was “++ (++ indicates binding activity from 10 to 50%)”.
